This sample is rich in variants without activity.
B1: TPR 5TU (parent)
chain: GGAUCUUCUCGAUCUAACAAAAAAGACAAAUCUGCCACAAAGCUUGAGAGCAUCUUCGGAUGCAGAGGCGGCAGCCUUCGGUGGCGCGAUAGCGCCAACGUUCUCAACUAUGACACGCAAAACGCGUGCUCCGUUGAAUGGAGUUUAUCAUG

Variants of: B1
Assay: polymerase ribozyme fitness, log enrichment relative to wild type (log ratio); higher = more active; in vitro selection for triplet polymerase activity
Procedure, shortened: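 Fitness measures genotype enrichment against wild-type enrichment on a logarithmic scale, with inverse-variance-weighted averaging of replicates. The logarithm is base 2, and genotypes were kept only with ≥10 input reads and ≥1 read per output in Illumina sequencing. The sequenced libraries came from one triplicate in vitro selection round, including frozen incubation at −7 °C, of PCR-built, transcribed mutant libraries of each subunit of a heterodimeric triplet polymerase ribozyme.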
With A20U C32G U56G G81A C93U A107G C131U C132G U135G A147G the “polymerase ribozyme fitness (log ratio)” value was at most -4.2. In the case of A20C A37U C54A G58A C87A U135A, the “polymerase ribozyme fitness (log ratio)” value is reported as at most -4.2. With A20U A40U C85G A98U C114A the “polymerase ribozyme fitness (log ratio)” value was at most -4.2. For A20U G48A G68U G83C C103G A138G G143C, the “polymerase ribozyme fitness (log ratio)” value was at most -4.2. For A20C A29U U82C, the “polymerase ribozyme fitness (log ratio)” value was at most -4.2. With A19U A26C A30U C35U A41U G84A U135A the “polymerase ribozyme fitness (log ratio)” value was at most -4.2. For A19C G83U C118U A120G U148G, the “polymerase ribozyme fitness (log ratio)” value was at most -4.2. For A20C C54G G70C U77C, the “polymerase ribozyme fitness (log ratio)” value was at most -4.2. For A19U A47C U55G C87U G92U U101C, the “polymerase ribozyme fitness (log ratio)” value was -2.81. For A20U A40C, the “polymerase ribozyme fitness (log ratio)” value was -0.959. For A20C C36A, the “polymerase ribozyme fitness (log ratio)” value was -4.06. For A19U C105G, the “polymerase ribozyme fitness (log ratio)” value was -1.81. In the case of A20U A41C G71C G86C U130A, the “polymerase ribozyme fitness (log ratio)” value is reported as at most -4.2. In the case of A20U A30U A37U C51G C93U C95A C96G C116G, the “polymerase ribozyme fitness (log ratio)” value is reported as at most -4.2. For A19U A26U C35A A91C G152A, the “polymerase ribozyme fitness (log ratio)” value was at most -4.2. For A19U A26C G59A C72G C93A A98U U130A U144G, the “polymerase ribozyme fitness (log ratio)” value was at most -4.2. In the case of A20G A23U G58C C87G A119U, the “polymerase ribozyme fitness (log ratio)” value is reported as at most -4.2. With A20C U56G C57G C96G U139C U151C the “polymerase ribozyme fitness (log ratio)” value was at most -4.2. With A20C C36U C85G C103G the “polymerase ribozyme fitness (log ratio)” value was at most -4.2. In the case of A20C C118U, the “polymerase ribozyme fitness (log ratio)” value is reported as -0.906. In the case of A19U C38A A47G G48A U55A G124C C125A U144C, the “polymerase ribozyme fitness (log ratio)” value is reported as at most -4.2. In the case of A20U A28G G50C C57U G80A C96U A97C G128C A137C, the “polymerase ribozyme fitness (log ratio)” value is reported as at most -4.2. For A20G C87A U144A, the “polymerase ribozyme fitness (log ratio)” value was at most -4.2. With A19G G50A G83C G86U C96U the “polymerase ribozyme fitness (log ratio)” value was at most -4.2. For A20C G34A A47G U104G U130G A150G, the “polymerase ribozyme fitness (log ratio)” value was at most -4.2. With A19U C51U G58C C85U A91U C114U C118U the “polymerase ribozyme fitness (log ratio)” value was at most -4.2. For A20C U44A C63U A66U G80C, the “polymerase ribozyme fitness (log ratio)” value was at most -4.2. With A20C U77C C95G A97C A98C A113U A119U A147G C149G the “polymerase ribozyme fitness (log ratio)” value was at most -4.2. With A19C G70C C103G the “polymerase ribozyme fitness (log ratio)” value was at most -4.2. With A19G A40C C93U the “polymerase ribozyme fitness (log ratio)” value was -0.92. With A19C G46A G62A G94A C95A the “polymerase ribozyme fitness (log ratio)” value was at most -4.2. In the case of A19C G34A C57U G86C C96U A98U, the “polymerase ribozyme fitness (log ratio)” value is reported as -3.16. For A20G C87U A91U, the “polymerase ribozyme fitness (log ratio)” value was at most -4.2. For A19C U55A A91G, the “polymerase ribozyme fitness (log ratio)” value was -2.67. For A20U A49U U61A C69U A89C C93U C108U A113U A147C, the “polymerase ribozyme fitness (log ratio)” value was at most -4.2. In the case of A20G G25A A40U A47G G48C C85A A142G, the “polymerase ribozyme fitness (log ratio)” value is reported as at most -4.2. For A20G U53A C76A G86U G88A, the “polymerase ribozyme fitness (log ratio)” value was at most -4.2. For A20U A21G A37U C43A A52G G70C G86A A97C A98U, the “polymerase ribozyme fitness (log ratio)” value was at most -4.2. For A20C G83C C118G U130G, the “polymerase ribozyme fitness (log ratio)” value was at most -4.2. In the case of A20G G46C A52G C87G G140U, the “polymerase ribozyme fitness (log ratio)” value is reported as at most -4.2. In the case of A19U A23C A29G G83C A97U C103G U139C, the “polymerase ribozyme fitness (log ratio)” value is reported as at most -4.2. In the case of A20C G86A, the “polymerase ribozyme fitness (log ratio)” value is reported as -2.24. For A19C G25U U55A C72U G88A G128A G152A, the “polymerase ribozyme fitness (log ratio)” value was at most -4.2. For A20U C93A, the “polymerase ribozyme fitness (log ratio)” value was -2.86. In the case of A19U C69G C85U U134G G152U, the “polymerase ribozyme fitness (log ratio)” value is reported as at most -4.2. With A19G A26C U55G G83U U151C the “polymerase ribozyme fitness (log ratio)” value was at most -4.2. In the case of A19U A21C A29C G50A C93G C95A C103U U148A, the “polymerase ribozyme fitness (log ratio)” value is reported as at most -4.2. For A19U U33A G84A G92C G94C, the “polymerase ribozyme fitness (log ratio)” value was at most -4.2. In the case of A20C C32A A52G A91U G94A C99U A147U G152U, the “polymerase ribozyme fitness (log ratio)” value is reported as -3.97. With A19G C87G G92A U134A the “polymerase ribozyme fitness (log ratio)” value was at most -4.2. With A20U G92A A121U G141C the “polymerase ribozyme fitness (log ratio)” value was -4.03. For A19G A64C U78G A91U, the “polymerase ribozyme fitness (log ratio)” value was at most -4.2. For A20U A29C A30G C54A G67C G80U C93U G94A A97C C99U, the “polymerase ribozyme fitness (log ratio)” value was at most -4.2. With A20G A30U C54U U56A G86A the “polymerase ribozyme fitness (log ratio)” value was at most -4.2. In the case of A19G A37C G68C G83C C96U G126C U151G, the “polymerase ribozyme fitness (log ratio)” value is reported as at most -4.2. In the case of A19U A20U C35U G59C U77C C118U C123U G141A U151G, the “polymerase ribozyme fitness (log ratio)” value is reported as at most -4.2. In the case of A20U A22C G68C U77A U82G C93U U139C, the “polymerase ribozyme fitness (log ratio)” value is reported as at most -4.2. With A20C G94A G136U the “polymerase ribozyme fitness (log ratio)” value was -3.83. For A20U G25C A49G G50A C95U C108G C131U G140U A150U, the “polymerase ribozyme fitness (log ratio)” value was at most -4.2. In the case of A20C A60G, the “polymerase ribozyme fitness (log ratio)” value is reported as -0.605. With A20C A29U A66G C93A A121G G136C the “polymerase ribozyme fitness (log ratio)” value was at most -4.2. In the case of A20C A24C A40G U53A U104C, the “polymerase ribozyme fitness (log ratio)” value is reported as at most -4.2. In the case of A20U U56A, the “polymerase ribozyme fitness (log ratio)” value is reported as -1.87. In the case of A19G A91U C96U, the “polymerase ribozyme fitness (log ratio)” value is reported as at most -4.2. With A19U A28U C63U C85U the “polymerase ribozyme fitness (log ratio)” value was at most -4.2. In the case of A19G C27U U78C C93U C123G U127C, the “polymerase ribozyme fitness (log ratio)” value is reported as at most -4.2. With A20G A28U G141C the “polymerase ribozyme fitness (log ratio)” value was at most -4.2. In the case of A20C A23U C27A G58U C72A A89G C99A A107C, the “polymerase ribozyme fitness (log ratio)” value is reported as at most -4.2. For A20U C27G G46U G92U A138C G143U, the “polymerase ribozyme fitness (log ratio)” value was at most -4.2. For A20U U56A A73G G94A U101A, the “polymerase ribozyme fitness (log ratio)” value was -2.45. In the case of A20C G70C G81U C87U C93U C103A, the “polymerase ribozyme fitness (log ratio)” value is reported as at most -4.2. In the case of A19U A29U A39G U44G C85U G143U, the “polymerase ribozyme fitness (log ratio)” value is reported as at most -4.2. For A19U U61G C69G U82G G92A A98U C131G, the “polymerase ribozyme fitness (log ratio)” value was at most -4.2. In the case of A19U A23U C27A U56A G100A, the “polymerase ribozyme fitness (log ratio)” value is reported as at most -4.2. For A20U U44A G62A C87G G140A, the “polymerase ribozyme fitness (log ratio)” value was at most -4.2. With A19G G50U G83A A115C G141C the “polymerase ribozyme fitness (log ratio)” value was at most -4.2. For A19C C79G U102G G140C U146G, the “polymerase ribozyme fitness (log ratio)” value was at most -4.2. For A20G A73G G84A G141A U148A, the “polymerase ribozyme fitness (log ratio)” value was at most -4.2. For A20C U31A A41C G48U C93U A97G G112C C116G, the “polymerase ribozyme fitness (log ratio)” value was at most -4.2. With A19G A49G C57U C93A G117C the “polymerase ribozyme fitness (log ratio)” value was at most -4.2. With A21C A22G G34U G46U G67C U77C C87A the “polymerase ribozyme fitness (log ratio)” value was at most -4.2. In the case of A20C G25U A28C U44A A66G G67C C95G U135A, the “polymerase ribozyme fitness (log ratio)” value is reported as at most -4.2. With A19G A47C C72G A110U the “polymerase ribozyme fitness (log ratio)” value was at most -4.2. In the case of A20G U55A G70A U78A C79G U135G, the “polymerase ribozyme fitness (log ratio)” value is reported as at most -4.2.
